Measured values published in the supplement of paper PMC10126150.
Values marked as one replicate rest on one cluster of the flow cell; about a third of the high ones do not repeat.

Test system: ATP
Experiment: switch fluorescence ratio, 500 uM ATP over buffer (Cy3 cluster intensity, sum of 5 cycles each) (fold (ratio)); higher = stronger signal-on switching upon ATP binding; sequences stand for … in TCGTCGGCAGCGTCAGATGTGTATAAGAGACAGTTTTTTTTTTTTTTTTTTTTTTTTT…TC
Settings: aptamer strand: ATP DNA aptamer (quencher-CACCTGGGGGAGTATTGCGGAGGAAGG + anchor), 100 nM annealed; ATP concentration: 500 uM; one replicate
Outline: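 Imaging in selection buffer was followed by imaging after 15 min with 500 uM ATP at 22 °C, for Cy3-labelled switching-strand clusters annealed to 100 nM quencher-labelled ATP aptamer on a modified Illumina MiSeq flow-cell. Five of these buffer/ATP cycles ran, separated by NaOH stripping and re-annealing. The fluorescence ratio per cluster is summed target-cycle over summed buffer-cycle Cy3 intensity, averaged per switch-domain sequence; clusters outside 100-1000 RFU were removed.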
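Further: ATP exposure 15 min at 22 °C before imaging.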

AGCGGCATCG
switch fluorescence ratio: 0.967

AGGCAGAGTT
switch fluorescence ratio: 0.945

GGGTCGTCGA
switch fluorescence ratio: 0.994

TCTGGGCTAT
switch fluorescence ratio: 1.05

AGATCGTAGT
switch fluorescence ratio: 1.01

ATCGCTTTA
switch fluorescence ratio: 1.01

TGGGCAAAAG
switch fluorescence ratio: 1.27

AACGACCGAC
switch fluorescence ratio: 2.53

GAGTGCTGTG
switch fluorescence ratio: 0.944

TTCTTAGTCT
switch fluorescence ratio: 1.05

GCGAAATTAC
switch fluorescence ratio: 1.85

GAACGGGTTA
switch fluorescence ratio: 1.01

TTACTTCATC
switch fluorescence ratio: 1.02

CCCTTGGGTC
switch fluorescence ratio: 1.02

GGAGTCACCT
switch fluorescence ratio: 1.14

ACTATCTCAT
switch fluorescence ratio: 0.973

ATGCAATATG
switch fluorescence ratio: 1.2

GCCGGTAAAT
switch fluorescence ratio: 0.976

GCTGCAACGC
switch fluorescence ratio: 1.11

TTATCATTGG
switch fluorescence ratio: 0.975

GGGGCGACGA
switch fluorescence ratio: 0.975

GCTTGTACAG
switch fluorescence ratio: 0.972

TGAAAACTTT
switch fluorescence ratio: 0.993

CCCACACGGC
switch fluorescence ratio: 1.19

AGTCGGGTTT
switch fluorescence ratio: 1.03

CAATAGAGT
switch fluorescence ratio: 0.959

GGAGTGGGAG
switch fluorescence ratio: 0.994

CTCATGCGGA
switch fluorescence ratio: 1.08

TTTTTCGC
switch fluorescence ratio: 1.03

CATAGGTCGT
switch fluorescence ratio: 1.05

TTTCAGCCTT
switch fluorescence ratio: 0.999

TGAGCACGAG
switch fluorescence ratio: 1.1

GTGATTAGAC
switch fluorescence ratio: 0.936

ATGGCCTTGT
switch fluorescence ratio: 1.02

CAGCGGCACA
switch fluorescence ratio: 1.17

TCGGCAGCGT
switch fluorescence ratio: 0.991

TATGGGATGC
switch fluorescence ratio: 0.976

GAGAGAATG
switch fluorescence ratio: 1

AGCGCCCCTT
switch fluorescence ratio: 0.982

ATTACAAGCA
switch fluorescence ratio: 1.02

TTGGATCTGT
switch fluorescence ratio: 0.986

TAGCACATGT
switch fluorescence ratio: 1.01

AGGTTACCG
switch fluorescence ratio: 1.07

GGCGTCGTTG
switch fluorescence ratio: 0.963

CGGTTCGCAA
switch fluorescence ratio: 2.54

CACGCTATCG
switch fluorescence ratio: 1.12

GATATAGCTG
switch fluorescence ratio: 1.01

CTAACGTACT
switch fluorescence ratio: 1.8

ACATAGTGCC
switch fluorescence ratio: 1.05

CCCTATCAAA
switch fluorescence ratio: 1.04

TTTACGACTT
switch fluorescence ratio: 1.01

TATCAGGATC
switch fluorescence ratio: 1.05

ACATAGCCTC
switch fluorescence ratio: 1.05

TCATCGCTC
switch fluorescence ratio: 1.23

TTATCGTGCT
switch fluorescence ratio: 0.939

TCCTGGATTT
switch fluorescence ratio: 0.971

ATCGAAGTGT
switch fluorescence ratio: 0.993

CGTGCTTA
switch fluorescence ratio: 1.01

TTAAGATCGG
switch fluorescence ratio: 0.917

CTTGGCGTTC
switch fluorescence ratio: 1.04

AGATCAGTGG
switch fluorescence ratio: 1

AAAGACATAC
switch fluorescence ratio: 1.67

ATCCTTCAAT
switch fluorescence ratio: 1.12

CAGGCGCTAC
switch fluorescence ratio: 5.09

CCACTTCTTA
switch fluorescence ratio: 0.967

AGGCGTGACT
switch fluorescence ratio: 0.998

GTGAGCAATT
switch fluorescence ratio: 1.38

ACTGGTCGGG
switch fluorescence ratio: 1

AACTTGGACA
switch fluorescence ratio: 0.958

GTCCGTGAGA
switch fluorescence ratio: 1.01

TCAAGGTCCG
switch fluorescence ratio: 1.04

AAATTTGCTC
switch fluorescence ratio: 0.914

TCGGGCTGCT
switch fluorescence ratio: 1.03

GCCATTTAGT
switch fluorescence ratio: 0.985

ACGAGTAG
switch fluorescence ratio: 1.01

AGCCATGTCA
switch fluorescence ratio: 1.05

TTCCAATTAC
switch fluorescence ratio: 1.52

ACCCAGCATT
switch fluorescence ratio: 1.17

CGAAAATATG
switch fluorescence ratio: 1.03

CCCTACTGGG
switch fluorescence ratio: 0.955

GATATCGGTG
switch fluorescence ratio: 0.988

ATGGTACCTG
switch fluorescence ratio: 1.02

TTCAGTTGCG
switch fluorescence ratio: 0.946

AACTGGGTGT
switch fluorescence ratio: 1.07

AGAATTTCCC
switch fluorescence ratio: 1.04

ACTGGAGGCA
switch fluorescence ratio: 0.996

CCAAGAAAGA
switch fluorescence ratio: 1.04

AGGCGCCCAA
switch fluorescence ratio: 0.957

TTGGGCCAGT
switch fluorescence ratio: 0.998

TAGTGCAAC
switch fluorescence ratio: 1.01

GGGCGTTTTG
switch fluorescence ratio: 0.967

ACGACTAGGA
switch fluorescence ratio: 1.11

GTATCAGGTT
switch fluorescence ratio: 0.965

AAGGTTGGCC
switch fluorescence ratio: 0.972

GTGGATAACG
switch fluorescence ratio: 1

TTCTCTACCT
switch fluorescence ratio: 1.07

GGCCGGGCGA
switch fluorescence ratio: 0.966

ATAAGAGACA
switch fluorescence ratio: 1.03

TCAAGCGATA
switch fluorescence ratio: 1.47

AGTTTTCCTT
switch fluorescence ratio: 1.01

GGATTATCGC
switch fluorescence ratio: 0.985

ATTATTCTGC
switch fluorescence ratio: 1.04

GTCCGACGGT
switch fluorescence ratio: 1.18

AAGACAGCCG
switch fluorescence ratio: 0.981

TAGGGTCGTA
switch fluorescence ratio: 1

ATGACTTTGC
switch fluorescence ratio: 0.955

ACGTTGCGTC
switch fluorescence ratio: 0.982

GCTAATAACT
switch fluorescence ratio: 0.99

TGGGCCAAGA
switch fluorescence ratio: 0.976

TATGCTCATT
switch fluorescence ratio: 0.999

TGAGAGCGGG
switch fluorescence ratio: 1.02

AACCCGTTTT
switch fluorescence ratio: 1.01

CTGAATGCAC
switch fluorescence ratio: 2.39

GCGTTAGGTA
switch fluorescence ratio: 1

AGTTGGGTAC
switch fluorescence ratio: 0.995

ATCGGGTGCT
switch fluorescence ratio: 0.998

TTAGCACACC
switch fluorescence ratio: 1.2

CTGGTGCCG
switch fluorescence ratio: 1.01

AGTTTATGA
switch fluorescence ratio: 1

CGTTTAGATT
switch fluorescence ratio: 0.977

TTATAATGTT
switch fluorescence ratio: 0.996

AATAATCGGA
switch fluorescence ratio: 1.01

TTCTGTCCGG
switch fluorescence ratio: 1.01

CACGAGTAGC
switch fluorescence ratio: 0.985

AACGCCGTGG
switch fluorescence ratio: 1.02

CTGTGACCGC
switch fluorescence ratio: 1.18

TCAAGTTCCT
switch fluorescence ratio: 1.02

GCTCTTAATG
switch fluorescence ratio: 0.967

AACTTGCAT
switch fluorescence ratio: 1.06

CGAGCCGTCA
switch fluorescence ratio: 0.975

GGTGTGTACA
switch fluorescence ratio: 0.955

AAGCTACACA
switch fluorescence ratio: 1.05

CGAGCTATG
switch fluorescence ratio: 1.12

AACGAAATAA
switch fluorescence ratio: 1.14

TATATATGGT
switch fluorescence ratio: 1.02

CTAGTCGCTA
switch fluorescence ratio: 0.981

TTAATCATT
switch fluorescence ratio: 0.998

TTCCTAACAT
switch fluorescence ratio: 1.03

GCGGGTTCAT
switch fluorescence ratio: 0.987

GACCAGTGTG
switch fluorescence ratio: 1.14

GTTCAACTCG
switch fluorescence ratio: 0.982

AGCTAAATGT
switch fluorescence ratio: 0.973

ACTATAGCTT
switch fluorescence ratio: 1.05

TGAATCTAGG
switch fluorescence ratio: 1.04

AGCAGGAGCA
switch fluorescence ratio: 1

AAGAGACAGC
switch fluorescence ratio: 1.09

ATGGATTTGA
switch fluorescence ratio: 1.02

AGCTACTGCT
switch fluorescence ratio: 1.03

TAGGCAAATA
switch fluorescence ratio: 1.59

GCGATTAGGA
switch fluorescence ratio: 0.95

GTCGTGAGAC
switch fluorescence ratio: 0.989

CTCGGAGTTT
switch fluorescence ratio: 1.03

TAGGACTCTG
switch fluorescence ratio: 1.13

TTGAGCTGGG
switch fluorescence ratio: 0.941

CGCACTTTTT
switch fluorescence ratio: 1.09

TGAATTCCCC
switch fluorescence ratio: 1.01

CAGATCGGTG
switch fluorescence ratio: 0.962
